{
  "source": "the supplement of paper PMC11181314",
  "tested_on": "U2OS",
  "test": "Cell Painting induction (percent of morphological features significantly changed vs DMSO); higher = stronger morphological change",
  "conditions": "10 µM, 20 h",
  "method": "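Cell Painting assay in U2OS cells: compounds at 10 µM for 20 h, six dyes, 579 robust CellProfiler features as Z-scores vs DMSO median (MAD). Induction is the % of significantly changed features (active if ≥5%); relative cell count is in % of DMSO. The primary run holds DCM compounds preselected for induction ≥10%; the confirmation repeat defines active compounds (370 of 549). Replicate agreement is low, attributed to precipitation.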",
  "key": {"[1]": {"conditions": "run: primary screen (compounds selected for induction >=10%)"}},
  "note": "The other results are listed elsewhere or left out. Single values of this set are uncertain.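 Also: stains mark DNA, RNA and nucleoli, ER, actin, Golgi, plasma membrane and mitochondria, read by high-content imaging, with DMSO controls at matching solvent concentration.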",
  "data": [
    {"smiles": "Cc1cccc(-n2ncc(C(=O)Nc3ccc(F)c(Cl)c3)c2C2CCNCC2)c1", "values": [
      {"measurement": "Cell Painting induction", "setting": "run: confirmation repeat", "result": "active: 50.4%"},
      {"measurement": "Cell Painting induction", "setting": "[1]", "result": 25.6, "unit": "%"}
    ]},
    {"smiles": "CCOc1ccc(-n2c(SCCc3ccccc3)nc3sc4c(c3c2=O)CCN(C)C4)cc1", "values": [
      {"measurement": "Cell Painting induction", "setting": "run: confirmation repeat", "result": "inactive: 0.2%"},
      {"measurement": "Cell Painting induction", "setting": "[1]", "result": 12.1, "unit": "%"}
    ]},
    {"smiles": "CCOC(=O)c1ccc(NC(=O)c2cc(OC)c(OC)c(OC)c2)cc1", "values": [
      {"measurement": "Cell Painting induction", "setting": "run: confirmation repeat", "result": "active: 14.5%"},
      {"measurement": "Cell Painting induction", "setting": "[1]", "result": 20.9, "unit": "%"}
    ]},
    {"smiles": "CCC1CCCCN1CCNC(=O)C1CCCN(S(=O)(=O)c2cccc3nsnc23)C1", "note": "(stereo not given)", "values": [
      {"measurement": "Cell Painting induction", "setting": "run: confirmation repeat", "result": "active: 5.7%"},
      {"measurement": "Cell Painting induction", "setting": "[1]", "result": 11.7, "unit": "%"}
    ]},
    {"smiles": "COc1ccc(NC(=O)C2CCN(c3ncnc4c3nc3n4CCCCC3)CC2)cc1Cl", "values": [
      {"measurement": "Cell Painting induction", "setting": "run: confirmation repeat", "result": "active: 29.2%"},
      {"measurement": "Cell Painting induction", "setting": "[1]", "result": 14.2, "unit": "%"}
    ]},
    {"smiles": "CCc1ccc(-c2cc(C)no2)cc1S(=O)(=O)Nc1cccc(CN2CCCC2)c1", "values": [
      {"measurement": "Cell Painting induction", "setting": "run: confirmation repeat", "result": "active: 30.2%"},
      {"measurement": "Cell Painting induction", "setting": "[1]", "result": 29.5, "unit": "%"}
    ]},
    {"smiles": "Cc1cc2c3c([nH]c2cc1S(=O)(=O)NCc1ccc(CN2CCCCCC2)o1)CC(C)(C)CC3=O", "values": [
      {"measurement": "Cell Painting induction", "setting": "run: confirmation repeat", "result": "active: 33.3%"},
      {"measurement": "Cell Painting induction", "setting": "[1]", "result": 43.5, "unit": "%"}
    ]},
    {"smiles": "COc1ccc(OC)c(CN2CCN(Cc3ccccc3C(F)(F)F)CC2)c1", "values": [
      {"measurement": "Cell Painting induction", "setting": "run: confirmation repeat", "result": "active: 18.5%"},
      {"measurement": "Cell Painting induction", "setting": "[1]", "result": 18.3, "unit": "%"}
    ]},
    {"smiles": "Cc1cccc(-n2c(O)nc3c(C(N)=O)nc(-c4ccc(C(C)C)cc4)nc32)c1", "values": [
      {"measurement": "Cell Painting induction", "setting": "run: confirmation repeat", "result": "active: 50.9%"},
      {"measurement": "Cell Painting induction", "setting": "[1]", "result": 39.2, "unit": "%"}
    ]},
    {"smiles": "CCN(c1ccc(OC)cc1)S(=O)(=O)N1CCCC(C(=O)NCc2ccc(OC(C)C)cc2)C1", "note": "(stereo not given)", "values": [
      {"measurement": "Cell Painting induction", "setting": "run: confirmation repeat", "result": "active: 12.3%"},
      {"measurement": "Cell Painting induction", "setting": "[1]", "result": 16.2, "unit": "%"}
    ]},
    {"smiles": "N=c1c(C(=O)NCc2ccc3c(c2)OCO3)cc2c(=O)n3ccccc3nc2n1CC1CCCO1", "note": "(stereo not given)", "values": [
      {"measurement": "Cell Painting induction", "setting": "run: confirmation repeat", "result": "active: 5.5%"},
      {"measurement": "Cell Painting induction", "setting": "[1]", "result": 11.6, "unit": "%"}
    ]},
    {"smiles": "CCOc1cccc2cc(C(=O)NCc3ccc(F)cc3)c(=N)oc12", "values": [
      {"measurement": "Cell Painting induction", "setting": "run: confirmation repeat", "result": "active: 10.4%"},
      {"measurement": "Cell Painting induction", "setting": "[1]", "result": 21.1, "unit": "%"}
    ]},
    {"smiles": "COc1ccc(/C=C2/Sc3ccc(C(=O)N4CCOCC4)cc3NC2=O)cc1OC", "values": [
      {"measurement": "Cell Painting induction", "setting": "run: confirmation repeat", "result": "active: 45.1%"},
      {"measurement": "Cell Painting induction", "setting": "[1]", "result": 41.8, "unit": "%"}
    ]},
    {"smiles": "COc1ccc(N(CC(=O)N/N=C(\\C)c2cccs2)S(=O)(=O)c2ccccc2)cc1Cl", "values": [
      {"measurement": "Cell Painting induction", "setting": "run: confirmation repeat", "result": "inactive: 0%"},
      {"measurement": "Cell Painting induction", "setting": "[1]", "result": 21.2, "unit": "%"}
    ]},
    {"smiles": "CCOc1ccc(C(=O)Nc2ccc(C(C)C)cc2)cc1OCC", "values": [
      {"measurement": "Cell Painting induction", "setting": "run: confirmation repeat", "result": "active: 23%"},
      {"measurement": "Cell Painting induction", "setting": "[1]", "result": 18, "unit": "%"}
    ]},
    {"smiles": "COC(=O)c1cc(NC(=O)C2(S(=O)(=O)c3ccc(Cl)cc3)CC2)cc(C(=O)OC)c1", "values": [
      {"measurement": "Cell Painting induction", "setting": "run: confirmation repeat", "result": "active: 11.9%"},
      {"measurement": "Cell Painting induction", "setting": "[1]", "result": 11.7, "unit": "%"}
    ]},
    {"smiles": "COc1ccc(-c2cnnc(N/N=C/c3ccc(OC)c(OC)c3)n2)cc1", "values": [
      {"measurement": "Cell Painting induction", "setting": "run: confirmation repeat", "result": "active: 11.4%"},
      {"measurement": "Cell Painting induction", "setting": "[1]", "result": 23, "unit": "%"}
    ]},
    {"smiles": "CCOC(=O)C1(C)C=C(Nc2ccc(OCC)cc2)C(=O)N1c1ccccc1", "note": "(stereo not given)", "values": [
      {"measurement": "Cell Painting induction", "setting": "run: confirmation repeat", "result": "active: 11.6%"},
      {"measurement": "Cell Painting induction", "setting": "[1]", "result": 11.6, "unit": "%"}
    ]},
    {"smiles": "COc1ccc(Cl)cc1-n1nnc(C(=O)Nc2cccc(C(F)(F)F)c2)c1C", "values": [
      {"measurement": "Cell Painting induction", "setting": "run: confirmation repeat", "result": "active: 23%"},
      {"measurement": "Cell Painting induction", "setting": "[1]", "result": 28, "unit": "%"}
    ]},
    {"smiles": "CCCCN(C(=O)c1cccc(S(=O)(=O)N2CCCCC2)c1)C1CCS(=O)(=O)C1", "note": "(stereo not given)", "values": [
      {"measurement": "Cell Painting induction", "setting": "run: confirmation repeat", "result": "active: 8.6%"},
      {"measurement": "Cell Painting induction", "setting": "[1]", "result": 15.4, "unit": "%"}
    ]},
    {"smiles": "COc1ccc(-c2cc3ccccc3n2CC(O)CN2CCCCC2)cc1", "note": "(stereo not given)", "values": [
      {"measurement": "Cell Painting induction", "setting": "run: confirmation repeat", "result": "active: 39.7%"},
      {"measurement": "Cell Painting induction", "setting": "[1]", "result": 51.5, "unit": "%"}
    ]},
    {"smiles": "CCN1CCN(C(=O)c2ccc3c(c2)c(C)c(C)n3Cc2ccccc2)CC1", "values": [
      {"measurement": "Cell Painting induction", "setting": "run: confirmation repeat", "result": "active: 33.5%"},
      {"measurement": "Cell Painting induction", "setting": "[1]", "result": 26.8, "unit": "%"}
    ]},
    {"smiles": "COc1ccccc1-n1c(CNC(=O)c2ccco2)nnc1SCC(=O)Nc1nccs1", "values": [
      {"measurement": "Cell Painting induction", "setting": "run: confirmation repeat", "result": "active: 9.7%"},
      {"measurement": "Cell Painting induction", "setting": "[1]", "result": 15.5, "unit": "%"}
    ]},
    {"smiles": "CCCCN(CC)CCNC(=O)c1cc2c(=O)[nH]c3ccccc3c2n1C", "values": [
      {"measurement": "Cell Painting induction", "setting": "run: confirmation repeat", "result": "active: 5.5%"},
      {"measurement": "Cell Painting induction", "setting": "[1]", "result": 35.6, "unit": "%"}
    ]},
    {"smiles": "O=C(Nc1cccc(Cl)c1)c1cnn(-c2ccccc2)c1C1CCNCC1", "values": [
      {"measurement": "Cell Painting induction", "setting": "run: confirmation repeat", "result": "active: 39%"},
      {"measurement": "Cell Painting induction", "setting": "[1]", "result": 36.1, "unit": "%"}
    ]},
    {"smiles": "O=C(NCc1ccccn1)c1cc(-c2ccc(Br)cc2)nc2ccccc12", "values": [
      {"measurement": "Cell Painting induction", "setting": "run: confirmation repeat", "result": "active: 17.3%"},
      {"measurement": "Cell Painting induction", "setting": "[1]", "result": 12.6, "unit": "%"}
    ]},
    {"smiles": "C=CCn1cc(C(=O)NCCN(CC)CC)c(=O)c2cc(S(=O)(=O)N3CCCCCC3)ccc21", "values": [
      {"measurement": "Cell Painting induction", "setting": "run: confirmation repeat", "result": "active: 23.7%"},
      {"measurement": "Cell Painting induction", "setting": "[1]", "result": 38.3, "unit": "%"}
    ]},
    {"smiles": "Cc1ccc(-c2nnc(SCC(=O)N/N=C\\c3c(C)nn(-c4ccccc4)c3C)n2-c2ccccc2)cc1", "values": [
      {"measurement": "Cell Painting induction", "setting": "run: confirmation repeat", "result": "active: 5.4%"},
      {"measurement": "Cell Painting induction", "setting": "[1]", "result": 16.9, "unit": "%"}
    ]},
    {"smiles": "CC(=O)c1ccc(S(=O)(=O)N2CCC(Oc3ccc(-n4cnnn4)cc3)CC2)cc1", "values": [
      {"measurement": "Cell Painting induction", "setting": "run: confirmation repeat", "result": "inactive: 0%"},
      {"measurement": "Cell Painting induction", "setting": "[1]", "result": 44.4, "unit": "%"}
    ]},
    {"smiles": "COc1ccc(O)c(/C=N/NC(=O)CCC(=O)Nc2cccc(C)c2)c1", "values": [
      {"measurement": "Cell Painting induction", "setting": "run: confirmation repeat", "result": "active: 18.8%"},
      {"measurement": "Cell Painting induction", "setting": "[1]", "result": 15.9, "unit": "%"}
    ]},
    {"smiles": "Nc1nc(CN2CCN(C(c3ccccc3)c3ccccc3)CC2)nc(Nc2ccccc2)n1", "values": [
      {"measurement": "Cell Painting induction", "setting": "run: confirmation repeat", "result": "active: 19.5%"},
      {"measurement": "Cell Painting induction", "setting": "[1]", "result": 18.8, "unit": "%"}
    ]},
    {"smiles": "COc1cccc(CN2CCN(Cc3cc(OC)c(OC)c(OC)c3)CC2)c1OC", "values": [
      {"measurement": "Cell Painting induction", "setting": "run: confirmation repeat", "result": "inactive: 1%"},
      {"measurement": "Cell Painting induction", "setting": "[1]", "result": 12.3, "unit": "%"}
    ]},
    {"smiles": "CCOC(=O)C1CCN(c2c(Nc3cc(C)cc(C)c3)c(=O)c2=O)CC1", "values": [
      {"measurement": "Cell Painting induction", "setting": "run: confirmation repeat", "result": "active: 20.7%"},
      {"measurement": "Cell Painting induction", "setting": "[1]", "result": 33.5, "unit": "%"}
    ]},
    {"smiles": "Cc1cc(-c2ccc(C)c(S(=O)(=O)Nc3cccc(CN4CCCC4)c3)c2)on1", "values": [
      {"measurement": "Cell Painting induction", "setting": "run: confirmation repeat", "result": "active: 24.4%"},
      {"measurement": "Cell Painting induction", "setting": "[1]", "result": 21.4, "unit": "%"}
    ]},
    {"smiles": "CCc1ccc(NC(=O)C2CCCN(S(=O)(=O)c3cccs3)C2)cc1", "note": "(stereo not given)", "values": [
      {"measurement": "Cell Painting induction", "setting": "run: confirmation repeat", "result": "active: 15.4%"},
      {"measurement": "Cell Painting induction", "setting": "[1]", "result": 15.9, "unit": "%"}
    ]}
  ]
}
